Laboratory results reported in article PMC9574860, “Chemical Toolkit for PARK7: Potent, Selective, and High-Throughput” (Journal of Medicinal Chemistry, 2022).
The whole screen tested about 7,900 compounds, of which about 400 (5.1%) showed an effect of 50% or more. Some of the results follow.

Target: Parkinson's disease protein 7 (PARK7/DJ1) (human, UniProt Q99497)
Experiment: primary screen, percent inhibition; read as competition with a fluorescent probe by fluorescence polarization; higher = more effect of the substance
Settings: 100 µM
Procedure, shortened: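 Fluorescence-polarization probe displacement (JYQ-107, 20 nM final, 2 h) after 2 h preincubation of PARK7 (0.2 μM final) with each fragment at 100 μM final. Read-out ex/em 480/520 nm; remaining activity derived from FP signal loss relative to reference controls.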

Sequence of Parkinson's disease protein 7 (PARK7/DJ1) (Q99497 whole entry, looked up): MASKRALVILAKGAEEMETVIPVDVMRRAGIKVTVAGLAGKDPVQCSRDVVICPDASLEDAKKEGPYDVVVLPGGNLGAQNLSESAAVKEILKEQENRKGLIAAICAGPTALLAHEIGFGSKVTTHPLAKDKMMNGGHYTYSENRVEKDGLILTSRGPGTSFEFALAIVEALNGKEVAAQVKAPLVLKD

| Structure (SMILES) | Inhibition % |
| --- | --- |
| Cc1ccc(F)c(N(C#N)CCCN2C(=O)CNC2=O)c1 | -0.594% |
| N#CC(=Cc1cccc(O)c1)c1ccccn1 | 45.1% |
| CCN(CC1COc2ccccc2O1)C(=O)CCl (centres unmarked) | 21.2% |
| O=S(=O)(F)c1coc2ccccc12 | 10.5% |
| CC(C)C(NC(=O)CCl)c1ccccc1 (centres unmarked) | 9.18% |
| N#Cc1nccn1Cc1cc(F)cc(F)c1 | 5.08% |
| C=CC(=O)NCc1ccnc(N2CCN(C)CC2)n1 | 8.25% |
| CC1CCCCN1C(=O)Cn1cnc(C#N)n1 (centres unmarked) | 7.59% |
| CNC(=O)Oc1cccc(O)c1 | 37.6% |
| COc1ccc(CCn2cnc(C#N)n2)cc1 | 2.16% |
| O=C(NCCO)Oc1ccccc1 | 10.5% |
| CNC(=O)c1cc(C(=O)CCl)cn1C | 5.61% |
| O=C1OCCC1N1CCN(C(=O)c2cccc(F)c2)CC1 (centres unmarked) | 8.98% |
| O=C(CCl)NCCOc1cccc(Cl)c1 | 17.8% |
| CC(CC#N)Sc1ccccc1NC(=O)CCl (centres unmarked) | 10.5% |
| N#CC1(NS(=O)(=O)c2ccc(S(=O)(=O)F)cc2)CCC1 | 31.4% |
| C=CC(=O)Nc1ccc2c(c1)CC(=O)N2 | 12.5% |
| CC1(C)OB(c2cccc(O)c2)OC1(C)C | 5.19% |

| Structure (SMILES) | Inhibition % |
| --- | --- |
| Cn1nc2ccccc2c1C#N | 4.09% |
| Cc1nn(C)c2ncc(SC(=O)N(C)C)cc12 | 3.99% |
| C=CC(=O)NCCc1nc2ccccc2o1 | 3.17% |
| O=C(CCl)Nc1cc(-n2nnnc2C2CC2)ccc1F | 2.27% |
| CC(Cl)Cc1cc2ccc(O)cc2oc1=O (centres unmarked) | 12.3% |
| O=C(CCl)Nc1ccc(Br)cn1 | 2.66% |
| N#CSc1c(Cl)nc2sccn12 | 13.7% |
| C=CC(=O)N1CCCC1c1c(C)nn(CC(C)C)c1Cl (centres unmarked) | 3.35% |
| Cc1nc(C2CC2)nc(S)c1C#N | 2.7% |
| O=C(CCl)Nc1ccccc1O | 21.3% |
| N#Cc1c(N2CCCC(C(F)(F)F)C2)nc2ccccn12 (centres unmarked) | -0.359% |
| O=c1onc(-c2ncccn2)n1Cc1ccccc1F | 1.26% |
| CN(CCS(=O)(=O)F)S(=O)(=O)c1ccc(F)cc1 | 11% |
| N#Cc1cnc2ccccc2n1 | 8.61% |
| CCc1nc(C)cn1S(=O)(=O)c1ccc(C(C)C)cc1 | 12.7% |
| O=C(c1cc(S(=O)(=O)F)c[nH]1)N1CCN(C(=O)c2ccn[nH]2)CC1 | 6.64% |
| CCC1(O)CCN(C(=O)c2ccc(B(O)O)c(F)c2)CC1 | 7.89% |
